Reference: PMC4336329 (PLoS ONE, 2015)
Screen size: about 310,000 compounds; about 14,000 (4.5%) showed an effect of 50% or more. Effects have a minus sign here. This is one part of the list.

Target: human ether-à-go-go-related gene (hERG) potassium channel (human, UniProt Q12809)
Test: primary screen, population patch clamp on CHO cells stably expressing hERG
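Further: peak tail current of the secondary pulse compared with the same well before compound.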

Sequence of human ether-à-go-go-related gene (hERG) potassium channel (Q12809 whole entry, looked up): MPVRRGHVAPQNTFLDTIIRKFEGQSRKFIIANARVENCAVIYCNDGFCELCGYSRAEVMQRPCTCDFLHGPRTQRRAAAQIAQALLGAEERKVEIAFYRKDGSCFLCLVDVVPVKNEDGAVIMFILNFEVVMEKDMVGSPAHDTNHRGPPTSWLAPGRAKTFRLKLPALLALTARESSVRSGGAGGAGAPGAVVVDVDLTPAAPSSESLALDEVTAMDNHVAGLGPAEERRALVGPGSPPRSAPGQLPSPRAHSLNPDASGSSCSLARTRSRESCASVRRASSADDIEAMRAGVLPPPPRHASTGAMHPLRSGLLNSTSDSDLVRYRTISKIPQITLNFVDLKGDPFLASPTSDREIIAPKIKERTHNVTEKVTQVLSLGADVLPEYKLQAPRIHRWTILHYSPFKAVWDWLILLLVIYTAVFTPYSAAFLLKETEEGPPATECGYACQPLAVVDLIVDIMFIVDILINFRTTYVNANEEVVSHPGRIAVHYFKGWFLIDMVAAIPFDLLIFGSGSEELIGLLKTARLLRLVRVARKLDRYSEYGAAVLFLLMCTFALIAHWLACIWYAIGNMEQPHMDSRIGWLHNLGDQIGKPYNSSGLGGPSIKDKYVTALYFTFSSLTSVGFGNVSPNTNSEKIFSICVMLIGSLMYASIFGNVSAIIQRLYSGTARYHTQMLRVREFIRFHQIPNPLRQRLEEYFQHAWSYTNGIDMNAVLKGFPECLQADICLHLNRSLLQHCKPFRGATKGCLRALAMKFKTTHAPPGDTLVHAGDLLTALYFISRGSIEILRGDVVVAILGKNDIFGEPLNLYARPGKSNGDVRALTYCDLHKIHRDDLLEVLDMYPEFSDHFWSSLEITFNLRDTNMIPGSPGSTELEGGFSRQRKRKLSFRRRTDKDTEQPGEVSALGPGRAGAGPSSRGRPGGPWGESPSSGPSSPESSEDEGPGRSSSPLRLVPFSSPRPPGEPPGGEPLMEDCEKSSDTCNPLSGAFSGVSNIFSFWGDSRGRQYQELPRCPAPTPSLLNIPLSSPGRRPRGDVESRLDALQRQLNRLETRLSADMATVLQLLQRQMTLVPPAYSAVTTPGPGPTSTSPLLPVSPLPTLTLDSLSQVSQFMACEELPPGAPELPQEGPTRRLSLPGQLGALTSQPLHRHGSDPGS

Row | Structure (SMILES) | hERG current change (%, negative = inhibition) at 10uM [%]
1 | CCCNC(=O)CN(C1CCCCC1)S(C)(=O)=O | 30
2 | CCCNC(=S)Nc1ccc(F)cc1F | -12.6
3 | O=C(CN1CCN(C(C(=O)Nc2ccc(F)cc2)c2ccccc2)CC1)NC1CC1 (centres unmarked) | -27.8
4 | O=C(c1cn(-c2ccccc2)nc1-c1ccncc1)n1nnc2ccccc21 | 7.88
5 | COc1cccc(C(=O)Nc2c3c(nn2-c2cccc(C)c2C)CS(=O)C3)c1OC (centres unmarked) | -2.43
6 | Cc1ccc(/C=C/S(=O)(=O)NCCC(=O)NCc2ccc(F)cc2)cc1 | -22.9
7 | COC(=O)c1cc(C)sc1NC(=O)c1cccnc1 | 13.6
8 | CCN(CC)CC(=O)Nc1scc2c1c(=O)oc1ccccc12 | 9.72
9 | Cc1cc(Br)c(S(=O)(=O)NCc2cccnc2)cc1C | -1.6
10 | CN(C)S(=O)(=O)c1ccc(Cl)c(C(=O)NNC(=O)c2ccc3c(c2)OCO3)c1 | 3.82
11 | COC(=O)c1sc2nc(N)c(C#N)cc2c1N | 31.1
12 | Cc1nc(N2CCN(C(=O)c3ccco3)CC2)c2c3c(sc2n1)CCC3 | -54.8
13 | O=C(Nc1cccc(C(F)(F)F)c1)c1cccnc1N1CCN(CCO)CC1 | -63.8
14 | Cc1sc2ncn(CC(=O)NCc3ccco3)c(=O)c2c1-c1ccc(F)cc1 | -1.88
15 | COc1ccc2c(c1)C=CC1(O2)N(CCO)c2ccccc2C1(C)C (centres unmarked) | 4.64
16 | O=C(c1cccc([N+](=O)[O-])c1)c1ccc2c(c1)C(=O)NC2=O | -11.5
17 | CC1(C)CC(NC(=O)CC(c2ccccc2)c2ccccc2)CC(C)(C)N1 | -2.97
18 | CCOC(=O)C(Cc1cc(C(C)=O)ccc1OC(C)C)C(=O)OCC | -10.8
19 | O=C(NC(C(=O)c1ccccc1)N1CCCCCC1)c1ccco1 (centres unmarked) | -5.45
20 | Fc1ccc(Cn2c(SCc3ccc(F)c(F)c3)nnc2C(F)(F)F)cc1 | -23.1
21 | COc1ccc(CN2CN=C(Nc3nc4ccccc4s3)NC2)cc1 | -20.2
22 | Cc1ccc(NC(=S)N2CCN(S(C)(=O)=O)CC2)cc1 | 28.1
23 | Cc1ccc(C(C)NC(=O)Cc2cccs2)cc1C (centres unmarked) | -44.2

Row | Structure (SMILES) | hERG current change (%, negative = inhibition) at 10uM [%]
24 | O=C(OCc1cc2ccccc2[nH]c1=O)c1cccc([N+](=O)[O-])c1 | 1.51
25 | Clc1ccccc1CSc1nc2ccncc2[nH]1 | -6.61
26 | CCCCC(=O)Nc1cc(N(C)C)nc2ccccc12 | -66.3
27 | CCOC(=O)c1c(C)n(C)c2c1cc(OC(C)=O)c1ccccc12 | 19.7
28 | COc1cccc(NC(=O)C2Cc3ccccc3CN2C(=O)c2ccco2)c1 (centres unmarked) | -4.57
29 | Cc1ccc(CNC(=O)CCC2CCCN(C(=O)CCC(F)(F)F)C2)o1 (centres unmarked) | 3.62
30 | COc1ccccc1C1=NOC(COC(=O)c2ccc([N+](=O)[O-])cc2)C1 (centres unmarked) | -2.27
31 | O=C(CCCN1C(=O)CCC1=O)Nc1ccc(Br)cc1F | -5.28
32 | C[C@@H]1C=CC(=O)O[C@@H]1c1ccc(Cl)cc1 | 0.254
33 | CCOC(=O)c1ccc(S(=O)(=O)NCC(C)(C)N2CCOCC2)cc1.Cl | 14.3
34 | O=C1C=C(O)C(n2cncn2)C(c2ccc(F)cc2)C1 (centres unmarked) | 17.2
35 | CCCCc1nnc(NC(=O)C2=COCCO2)s1 | 29.2
36 | c1ccc(-c2onc(-c3ccco3)c2-c2ccc3c(c2)OCO3)cc1 | 2
37 | COc1ccc(C(C)(C)NC(=O)C2CCC(=O)N(C3CC3)C2)cc1OC (centres unmarked) | 15.6
38 | NC(=S)NNC(=O)Nc1cccc(Cl)c1 | 9.41
39 | O=[N+]([O-])c1cc(Cl)cc(/C=N/NC(=S)Nc2ccc(S(=O)(=O)N3CCOCC3)cc2)c1O | 14.3
40 | Cc1cc(C)n(-c2cc(N3CCN(S(=O)(=O)c4ccc(C)c(C)c4)CC3)ccc2[N+](=O)[O-])n1 | 15
41 | O=C(c1cc(F)cc2c1OCOC2)N1CCN(c2ccc(F)cc2)CC1 | -16
42 | CCn1cc(CCCC(=O)NCc2cccc(OC)c2)c2ccccc21 | 6.59
43 | CCNC(=S)N1CCC(c2nc3cc(C)c(C)cc3[nH]2)CC1.O=C(O)C(=O)O | -13.2
44 | C=C[C@@H]1c2cc(C)ccc2N(S(=O)(=O)c2ccc(C)cc2)[C@H](c2ccccc2C(F)(F)F)C1(C#N)C#N | 7.01
45 | C[C@@H]1CC2OC(=O)[C@@]3(C)C(=O)CC[C@@](C)(C23)[C@@]1(O)CCc1ccoc1 (some centres unmarked) | -19.8
46 | CNC(=O)c1c(Cl)cnn1-c1ccc(F)cc1 | 7.89

Row | Structure (SMILES) | hERG current change (%, negative = inhibition) at 10uM [%]
47 | COCCn1c(SCC(=O)Nc2c(C)n(C)n(-c3ccccc3)c2=O)nc2ccccc2c1=O | -19.6
48 | Cc1nn(C(C)CC(=O)O)c(C)c1C (centres unmarked) | 10.2
49 | Cc1ccc(Cl)c(Cn2cnc3c(cnn3C(C)(C)C)c2=O)c1F | -9.61
50 | CC(Oc1ccc(C(C)(C)C)cc1)C(=O)NC1CC(C)(C)NC(C)(C)C1 (centres unmarked) | 7.54
51 | COc1ccc(N(C)C(=O)c2oc(=O)c3ccccc3c2-c2ccc(C)cc2)c(OC)c1 | -4.67
52 | CC(C)Oc1ccc(Cc2c(O)nc(NCCCN(C)C)[nH]c2=O)cc1 | 7.19
53 | N#CCCN1CCN(C(CNS(=O)(=O)c2ccc(Cl)cc2)c2ccccc2)CC1 (centres unmarked) | -34.2
54 | C1CSC2(N1)C1CC3CC(C1)CC2C3.Cl (centres unmarked) | 8.27
55 | O=c1cc(-c2ccccc2)n(S(=O)(=O)c2ccc3ccccc3c2)o1 | -3.67
56 | CCCCC1=NN(C(=O)c2ccncc2)C(O)(C(F)(F)F)C1 (centres unmarked) | 23.1
57 | C(=N\Nc1ncnc2ccccc12)/c1ccccc1 | 0.173
58 | Cc1cc(C)c2c(n1)sc1c(N3CCN(CCO)CC3)ncnc12 | 2.49
59 | O=C(NOCc1ccccc1)c1ccc(Cl)cc1 | -17
60 | Nc1nc2ccccc2cc1S(=O)(=O)c1ccccc1 | 16
61 | Cn1c(CC(=O)Nc2ccccc2Cl)nnc1SCC(=O)NC1CCCCC1 | 14.3
62 | Cl.OC(c1ccc(Cl)cc1)C(CN1CCOCC1)c1ccccc1 (centres unmarked) | 6.54
63 | Cn1cc([N+](=O)[O-])c(C(=O)Nc2cc(Oc3ccccc3)cc([N+](=O)[O-])c2)n1 | 11.5
64 | COC(=O)C1CC(O)CN1C(=O)Nc1ccccc1 (centres unmarked) | -26
65 | Cc1ccc(-c2cc(-c3ccco3)c(C#N)c(=O)[nH]2)cc1 | 18.1
66 | Cc1ccc(NC(=O)COC(=O)c2nn(C)cc2Cl)cc1 | -9.06
67 | COc1ccc(OC)c(N(CC(=O)Nc2ccccc2C(=O)NCc2ccco2)S(C)(=O)=O)c1 | -18.6
68 | Cc1cc(C)nc(N2CCCC(C(=O)NCc3cccs3)C2)n1 (centres unmarked) | -7.77
69 | CCCCOc1ccccc1C1C(C(N)=O)=C(C)Nc2nnnn21 (centres unmarked) | 18.8

Row | Structure (SMILES) | hERG current change (%, negative = inhibition) at 10uM [%]
70 | CN1C(=O)N(C)C2C1NC(=O)N2C (centres unmarked) | -0.412
71 | Cc1ccc(NC(=O)C2CCCN2S(=O)(=O)c2cccc3cccnc23)c(C)c1 (centres unmarked) | -15
72 | Brc1ccc(C[n+]2ccccc2)cc1.[Br-] | -9
73 | COc1ccc(NC(=O)CNCCC2=CCCCC2)cc1 | 7.2
74 | Cc1c(C)n(C(=O)CN2CCN(c3ccccn3)CC2)c2ccccc12 | -15.3
75 | O=C(COc1cccc(Br)c1)N/N=C1\CCCc2ccccc21 | 5.63
76 | CCOc1cc(Br)cc(C(c2c(C(=O)O)[nH]c3ccccc23)c2c(C(=O)O)[nH]c3ccccc23)c1O | 18.8
77 | Cc1ccc(C2=NS(=O)(=O)N(C)C(C(=O)NCc3ccc(F)cc3)=C2)cc1 | -28.4
78 | CNC(C)C(=O)NC(C(=O)N1CCCC1C(=O)Nc1ccc2ncccc2c1)C(C)C.O=CO (centres unmarked) | 9.98
79 | NC(=O)COC(=O)/C=C/c1ccccc1[N+](=O)[O-] | 0.723
80 | O=[N+]([O-])c1ccccc1Oc1ccccc1Cl | -10.3
81 | O=C1C(Cc2cccc([N+](=O)[O-])c2)SC(=Nc2ccccc2)N1c1ccccc1 (centres unmarked) | 3.53
82 | CCOc1ccc(N/C=C/C(=O)c2ccc3ccccc3c2)c([N+](=O)[O-])c1 | -0.584
83 | Cc1cc(C(=O)COC(=O)C2=NNC(=O)CC2)c(C)n1-c1ccc(OC(F)F)cc1 | -48.4
84 | O=C(COc1ccccc1O)N1CCN(C(=O)c2ccco2)CC1 | -24.8
85 | Cc1ccc(Nc2ncc(C(=O)NCCCN3CCN(C)CC3)c3ccccc23)cc1Cl | -61.1
86 | CCn1nnnc1-c1ccc(OC)c(S(=O)(=O)NCCc2ccccc2)c1 | -10.9
87 | CC(C)Nc1nc(C#N)nc(NC(C)C)n1 | 0.219
88 | COc1ccc(NC(=O)Nc2nnc(Cc3ccc(F)cc3)s2)cc1 | 19.5
89 | COc1ccc(NS(=O)(=O)c2ccc3ccccc3c2)c2ncccc12 | 13
